# Test results published in article PMC4336329 (PLoS ONE, 2015).
# Hit rate of the full screen: of about 310,000 compounds, about 14,000 (4.5%) showed an effect of 50% or more. The effect is printed as a negative number. The list shows a part of the results.
# Biological target: human ether-à-go-go-related gene (hERG) potassium channel (human, UniProt Q12809)
# Assay: primary screen, population patch clamp on CHO cells stably expressing hERG
# 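Further: peak tail current of the secondary pulse compared with the same well before compound.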
# Sequence of human ether-à-go-go-related gene (hERG) potassium channel (Q12809 whole entry, looked up): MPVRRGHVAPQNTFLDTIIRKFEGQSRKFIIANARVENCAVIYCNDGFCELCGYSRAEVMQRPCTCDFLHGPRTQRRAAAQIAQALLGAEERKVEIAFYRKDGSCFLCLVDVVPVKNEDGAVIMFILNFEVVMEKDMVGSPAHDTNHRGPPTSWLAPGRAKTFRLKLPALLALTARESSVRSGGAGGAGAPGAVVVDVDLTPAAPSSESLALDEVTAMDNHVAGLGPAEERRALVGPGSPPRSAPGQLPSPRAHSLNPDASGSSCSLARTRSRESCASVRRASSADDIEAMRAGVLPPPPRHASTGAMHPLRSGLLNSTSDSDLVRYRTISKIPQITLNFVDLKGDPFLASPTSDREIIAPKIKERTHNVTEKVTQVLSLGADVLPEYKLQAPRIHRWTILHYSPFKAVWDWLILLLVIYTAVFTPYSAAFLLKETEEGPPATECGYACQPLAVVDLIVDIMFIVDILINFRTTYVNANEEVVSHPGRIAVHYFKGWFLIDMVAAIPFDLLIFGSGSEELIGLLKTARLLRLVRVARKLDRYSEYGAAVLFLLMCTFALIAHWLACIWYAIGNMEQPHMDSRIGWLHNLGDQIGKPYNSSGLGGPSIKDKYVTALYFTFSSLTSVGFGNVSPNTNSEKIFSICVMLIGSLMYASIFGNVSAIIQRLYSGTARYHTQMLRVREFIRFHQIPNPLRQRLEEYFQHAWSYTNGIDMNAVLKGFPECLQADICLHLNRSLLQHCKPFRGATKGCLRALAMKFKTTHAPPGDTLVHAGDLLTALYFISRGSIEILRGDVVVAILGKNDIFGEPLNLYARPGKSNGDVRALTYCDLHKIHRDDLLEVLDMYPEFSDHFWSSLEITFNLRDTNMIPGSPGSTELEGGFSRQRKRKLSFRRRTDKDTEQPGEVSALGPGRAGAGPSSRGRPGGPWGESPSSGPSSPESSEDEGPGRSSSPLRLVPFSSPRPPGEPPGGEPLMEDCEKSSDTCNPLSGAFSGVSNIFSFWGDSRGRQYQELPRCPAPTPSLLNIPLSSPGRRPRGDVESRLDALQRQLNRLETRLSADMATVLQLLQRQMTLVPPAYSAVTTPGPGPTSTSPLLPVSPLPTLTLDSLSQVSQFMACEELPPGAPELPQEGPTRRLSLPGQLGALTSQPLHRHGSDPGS
row,SMILES,"hERG current change (%, negative = inhibition) at 10uM"
1,COc1cc(NC(=O)c2cc(S(=O)(=O)N3CCc4ccccc43)cn2C)cc(OC)c1OC,17.5%
2,COc1ccc(CNC(=O)c2cc(-c3ccccc3O)n[nH]2)cc1,5.51%
3,COc1ccc(-n2c(SCC(=O)OC(C)C)nnc2-c2ccccn2)cc1,-14.4%
4,COc1ccc(C(=O)N/C(=C/c2cccnc2)C(=O)N2CCCCCC2)cc1OC,10.5%
5,COc1cc(NC(=O)CSc2nnnn2Cc2ccccc2)cc(OC)c1,8.56%
6,O=[N+]([O-])C1=CC=C2C(=NC3(CCCCC3)N2O)C1=NC1CCCCC1,29.2%
7,CCCS(=O)(=O)N1CCN(C(=O)c2cc(OC)cc(OC)c2)CC1,1.94%
8,CC(=O)N1c2ccc(N=Cc3cc(Br)cc(Br)c3O)cc2CC1C (centres unmarked),2.6%
9,CCSc1nc(-c2ccccc2)c(-c2ccccc2)n1CC(O)CO (centres unmarked),-2.23%
10,CC(C)OP(=O)(c1ccc(N(C)C)cc1)C(O)c1ccc(N(C)C)cc1 (centres unmarked),-3.47%
11,O=C(c1ccco1)N1CCN=C1SCc1cccc(F)c1,-6.98%
12,CC(=O)NNC(=O)c1sc(=S)n(C)c1C,5.27%
13,Cn1c(/C(C#N)=C/c2ccc(-c3ccc(S(N)(=O)=O)cc3)o2)nc2ccccc21,-38.1%
14,Cc1nc(-c2cccc(NC(=O)C3CCCCC3)c2)cs1,-6.57%
15,COc1ccc(C(OC(=O)c2cccs2)C(=O)NCC2CCCO2)cc1 (centres unmarked),-14.3%
16,COc1cc(C(=O)NNC(=O)c2ccccc2OCc2c(C)noc2C)cc(OC)c1OC,5.74%
17,O=C(NCc1ccccn1)c1ccc(CNS(=O)(=O)c2ccc(F)cc2)cc1,9.75%
18,CCN(CC(=O)Nc1cccc(C#N)c1)CC(=O)Nc1cccc(OC)c1,-9.48%
19,C=CCC1(C)C(=O)N(c2ccccc2)c2ccccc21 (centres unmarked),16.1%

row,SMILES,"hERG current change (%, negative = inhibition) at 10uM"
1,O=C(Cc1ccc(Cl)cc1Cl)Nc1cccc(S(=O)(=O)Nc2ccccc2F)c1,-1.71%
2,COC(=O)c1ccc(Cn2nc(C)c(Br)c2C)cc1,26.7%
3,COc1ccc(OC)c(/C=C/C(=O)Nc2cccc(S(=O)(=O)NC3=NCCCCC3)c2)c1,1.28%
4,Cc1ccc(NC(=O)Cc2ccccc2F)cc1S(=O)(=O)N1CCCCCC1,-6.21%
5,CCOC(=O)/C=c1\s/c(=C\c2sccc2C)c(=O)n1CC(=O)NCc1ccc(C)cc1,20.6%
6,Cc1ccc(N2CC(C(=O)Nc3ccc(N(C)C)cc3)CC2=O)cc1C (centres unmarked),1.21%
7,CCC(C)(C)NC(=O)C(c1ccc(C)cc1)N(CC1CCCO1)C(=O)CCC(=O)Nc1ccccn1 (centres unmarked),6.53%
8,O=S(=O)(NC1CCCCC1Sc1ncccn1)c1ccc(Cl)cc1 (centres unmarked),-50.9%
9,CCCOc1ccc(S(=O)(=O)n2cc(Br)c(=O)[nH]c2=O)cc1,-21%
10,Cc1ccc(C(=O)NCc2ccccn2)cc1S(=O)(=O)N1CCCCC1,9.25%
11,O=C(Nc1ccc(/C=C/c2nc3ccccc3o2)cc1)c1ccc(F)cc1,6.41%
12,CC(=O)/C(=N/Nc1ccc(Br)cc1)Sc1cccc2cccnc12,3.52%
13,CCn1c(=O)cc(OCC(=O)Nc2cccnc2)c2ccccc21,6.17%
14,COc1ccc(N2CCN(C(=O)c3ccc(C)cc3Cl)CC2)cc1,-24.4%
15,O=C(COc1ccc(Cl)cc1)Nc1ccccc1Cl,3.26%
16,CC1Cc2c([nH]c3ccccc23)C(=O)N1 (centres unmarked),19.2%
17,COc1cc(OC)cc(C(=O)Nc2ccc(C(=O)c3ccncc3)cc2)c1,-40.2%
18,CSc1cccc(NC(=O)/C=C/c2ccco2)c1,1.51%
19,COC(=O)c1c(NC(=O)COC(=O)[C@@H](NS(=O)(=O)c2ccc(C)cc2)C(C)C)sc2c1CCC2,1.93%

row,SMILES,"hERG current change (%, negative = inhibition) at 10uM"
1,CCC(=O)N(Cc1ccco1)Cc1cc2cc3c(cc2[nH]c1=O)OCO3,13.9%
2,O=C(C1CCN(S(=O)(=O)c2cccs2)CC1)N(c1ccccn1)C1CCCCC1,13.4%
3,CCCCC(=O)Nc1cccc(NC(=O)c2ccc(Br)cc2)c1,32.9%
4,COc1ccc(/C=N/n2c(SC)nnc(C(C)(C)C)c2=O)cc1OC,-20.9%
5,CC(=O)N[C@@H](CC(=O)O)C(=O)O,6.54%
6,CCn1c(SCC(=O)OC)nnc1C1CCCCC1,6.57%
7,COc1ccc(OCC#CCN2CCNCC2)cc1.O=C(O)C(=O)O,21.6%
8,CCN1C(=O)CSc2ccc(C(=O)NCc3ccco3)cc21,4.44%
9,COC(=O)c1ccc(COC(=O)C(CCS(C)(=O)=O)N2C(=O)c3ccccc3C2=O)cc1 (centres unmarked),-13.9%
10,O=C(NCCC1CCCCN1S(=O)(=O)c1cccs1)C(=O)Nc1ccccc1 (centres unmarked),-10.1%
11,Cc1nc2ccccc2c2c1C(=O)NC2=O,-1.6%
12,O=C(COc1ccc(Br)cc1)N/N=C1/SCC(=O)N1Cc1ccco1,-59.8%
13,Cc1ccc(NC(=O)C(=O)NCCN2CCN(S(=O)(=O)c3ccccc3)CC2)cc1C,16.3%
14,O=C(NCCC1CCCCN1S(=O)(=O)c1ccccc1)C(=O)NCc1ccc(F)cc1 (centres unmarked),-45.4%
15,COc1ccc(C(=O)C2CCCN(C(=O)c3cccs3)C2)cc1F (centres unmarked),-8.95%
16,Cc1cc(C)c(S(=O)(=O)NCCCn2ccnc2)cc1C,4.04%
17,Cc1cc(OC(C)C(=O)NCc2cccnc2)c2c(C)cc(=O)oc2c1 (centres unmarked),-31.3%
18,O=C(COC(=O)c1cnc(Cl)c(Cl)c1)NCc1ccco1,-9.32%
